Several values for one entry are separate records, joined by “and”; a condition that tells them apart may be missing. Equal values may be shown once. This continues a long series; more values of the same kind are listed elsewhere. Toxic doses and inconclusive results are not listed.

The test has as its system P388 leukemia ip, CD2F1 mice, survival T/C. The experiment in a line: NCI In Vivo Anticancer Drug Screen. Data for tumor model P388 Leukemia (intraperitoneal) in CD2F1 (CDF1) mice. As to conditions: endpoint: median survival time, higher = longer survival. The protocol:
The antitumor activity of compounds was measured in mice bearing transplantable tumors. Survival or tumor size were measured and the results are expressed as the measurement made in the treated group (T) divided by the measurement made in the vehicle treated control group (C). The tumor model used in this assay is P388 Leukemia (intraperitoneal) in CD2F1 (CDF1) mice

With `O=C1NC2(CCCCC2)C(=O)N1CCN(CCCl)CCCl`, the T/C is 97 % of control (dose: 2.5 mg/kg/injection, schedule: Q01DX001 (oral), vehicle: other); 188 % of control (dose: 3.0 mg/kg/injection, schedule: Q01DX009 (ip), vehicle: Klucel (hydroxypropylcellulose) (HPC)); 164 % of control and 172 % of control (dose: 3.12 mg/kg/injection, schedule: Q01DX009 (ip), vehicle: saline); 198 % of control (dose: 3.24 mg/kg/injection, schedule: Q01DX009 (ip), vehicle: Klucel (hydroxypropylcellulose) (HPC)); 206 % of control (dose: 4.0 mg/kg/injection, schedule: Q01DX009 (ip), vehicle: saline); 211 % of control and 87 % of control (dose: 5.0 mg/kg/injection, schedule: Q01DX009 (ip), vehicle: clinical formulation). In addition, the T/C (dose: 5.0 mg/kg/injection, schedule: Q01DX009 (ip), vehicle: saline with Tween-80) was 182 % of control; the T/C (dose: 5.0 mg/kg/injection, schedule: Q01DX009 (ip), vehicle: saline) is 185 % of control; the T/C (dose: 5.4 mg/kg/injection, schedule: Q01DX009 (ip), vehicle: Klucel (hydroxypropylcellulose) (HPC)) is 230 % of control; the T/C (dose: 6.0 mg/kg/injection, schedule: Q01DX009 (ip), vehicle: saline with Tween-80) was 203 % of control; the T/C (dose: 6.0 mg/kg/injection, schedule: Q01DX009 (oral), vehicle: other) is 96 % of control; the T/C (dose: 6.25 mg/kg/injection, schedule: Q01DX009 (ip), vehicle: saline) was 205 % of control and 91 % of control. For the same compound, the T/C by setting is: (dose: 9.0 mg/kg/injection, schedule: Q01DX009 (ip), vehicle: saline) 246 % of control; (dose: 10.0 mg/kg/injection, schedule: Q01DX005 (iv), vehicle: clinical formulation) 191 % of control; (dose: 10.0 mg/kg/injection, schedule: Q01DX009 (ip), vehicle: clinical formulation) 259 % of control and 87 % of control; (dose: 10.0 mg/kg/injection, schedule: Q01DX009 (ip), vehicle: other) 185 % of control; (dose: 10.0 mg/kg/injection, schedule: Q01DX009 (ip), vehicle: saline with Tween-80) 88 % of control; (dose: 10.0 mg/kg/injection, schedule: Q01DX009 (ip), vehicle: saline) 220 % of control. Besides, the T/C (dose: 12.0 mg/kg/injection, schedule: Q01DX005 (ip), vehicle: suspension in saline) is 200 % of control; the T/C (dose: 12.0 mg/kg/injection, schedule: Q01DX009 (ip), vehicle: Klucel (hydroxypropylcellulose) (HPC)) is 91 % of control; the T/C (dose: 12.0 mg/kg/injection, schedule: Q01DX009 (ip), vehicle: saline with Tween-80) was 240 % of control; the T/C (dose: 13.0 mg/kg/injection, schedule: Q01DX009 (ip), vehicle: saline) was 269 % of control; the T/C (dose: 20.0 mg/kg/injection, schedule: Q01DX005 (ip), vehicle: other) was 199 % of control; the T/C (dose: 20.0 mg/kg/injection, schedule: Q01DX009 (ip), vehicle: Klucel (hydroxypropylcellulose) (HPC)) is 94 % of control. Moreover, the T/C is 226 % of control (dose: 20.0 mg/kg/injection, schedule: Q01DX009 (ip), vehicle: saline); 196 % of control (dose: 24.0 mg/kg/injection, schedule: Q01DX005 (ip), vehicle: saline); 234 % of control (dose: 24.0 mg/kg/injection, schedule: Q01DX005 (ip), vehicle: suspension in saline); 193 % of control (dose: 24.0 mg/kg/injection, schedule: Q01DX009 (ip), vehicle: other); 94 % of control (dose: 32.0 mg/kg/injection, schedule: Q01DX001 (oral), vehicle: saline); 95 % of control (dose: 32.0 mg/kg/injection, schedule: Q01DX001 (oral), vehicle: suspension in saline). Moreover, the T/C was 214 % of control (dose: 50.0 mg/kg/injection, schedule: Q01DX001 (ip), vehicle: Klucel (hydroxypropylcellulose) (HPC)); 200 % of control (dose: 64.0 mg/kg/injection, schedule: Q01DX001 (ip), vehicle: suspension in saline); 94 % of control (dose: 100.0 mg/kg/injection, schedule: Q01DX009 (oral), vehicle: Klucel (hydroxypropylcellulose) (HPC)).

Take `O=C1OC(C(O)CO)C(O)=C1O` (configuration not stated): the T/C (dose: 0.05 mg/kg/injection, schedule: Q01DX009 (sc), vehicle: saline) was 95 % of control.

Consider `CO[C@H]1C[C@](C)(O)Cc2cc3c(c(O)c21)C(=O)c1c(O)cc2c(c1C3=O)O[C@@H]1O[C@@]2(C)[C@H](O)[C@@H](N(C)C)[C@@H]1O`, for which the T/C is, setting by setting: (dose: 12.5 mg/kg/injection, schedule: Q01DX001 (sc), vehicle: other) 97 % of control; (dose: 22.5 mg/kg/injection, schedule: Q01DX005 (iv), vehicle: clinical formulation) 98 % of control; (dose: 40.0 mg/kg/injection, schedule: Q01DX005 (ip), vehicle: distilled water + Tween-80) 96 % of control.

The values are drawn from PubChem BioAssay AID330 (DTP/NCI, 2004).
